Laboratory results taken from publication PMC12136788.
The other results are listed elsewhere or left out.

T1: UNK ZnF1-3 (human, UniProt Q9C0B0 31-174)
T1 sequence: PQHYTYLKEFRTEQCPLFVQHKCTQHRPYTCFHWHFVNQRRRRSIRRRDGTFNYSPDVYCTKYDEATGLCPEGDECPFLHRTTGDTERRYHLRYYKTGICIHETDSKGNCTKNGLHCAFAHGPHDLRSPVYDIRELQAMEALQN

B1: chr9:96246283:96246284:-_ENSMUSG00000032412_ENSMUST00000034983|mus_mus|motif|central (ssRNA)
RNA: GGGAGUUCUACAGUCCGACGAUCCUGGAGCAUGGCCCACAUUGUGAAUGUGAAGAGUGCAGCCAAGAACCCAUAAAAAACGGGGUAGAAGAGCAAGAUCAGACCCCAGCUCUUGGAGGUGCGCCCCAGAAACUCUCCGCUGCUCAACAGAGGAUUGAGCAUCA
B2: 118363939_118365411_5255_CDS_ENSG00000118058_ENST00000534358|human|control|control (ssRNA)
RNA: GGGAGUUCUACAGUCCGACGAUCUUGCCGAAUGAAGAAGGACUUGACCAUGCUGUUGGCUUUUUUAAUUUCUGGCUGUCCUCCAUCUGAAUUAAUGGCUGCUUGAAUGAUCUUCACAAUAUCAUCACUGAACUCCAACACAGACAACAGAGGAUUGAGCAUCA
B3: chr10:1038518:1038519:+_ENSG00000107937_ENST00000545048|hu_hu|hu_hu_hu_mus_False|1_58 (ssRNA)
RNA: GGGAGUUCUACAGUCCGACGAUCCAGUCUGUCAUGGUAAUUCUGUUGAGUAAAUUUGACUUUUCUCAUAUAAAAAUGUCUAAUGCGAUGAAUUUGAUAAUGUUUAUGAAUAACCGUUGGAGUCUUUCGUUGAGUCUUCGACAACAACAGAGGAUUGAGCAUCA
B4: chrX:71549762:71549763:+_ENSMUSG00000019087_ENSMUST00000019231|mus_mus|mus_mus_mus_hu_False|1_8 (ssRNA)
RNA: GGGAGUUCUACAGUCCGACGAUCAAACCCGUGUACUUCUUAUUGUUAGCACAACAUCACCAGAAAACGAUAACGACAGCCAAGCAGGACAGACAGUUAAGUAGUACUUCCACACUCCCAAACUCAGAGGAACCUCAAGUUCAUCAACAGAGGAUUGAGCAUCA
B5: 33323112_33323610_1834_CDS_ENSG00000005156_ENST00000378526|human|control|control (ssRNA)
RNA: GGGAGUUCUACAGUCCGACGAUCAUCCUGGAAGGCUGCUUUCUUGUGUACUCCCAGAGUCCCAAAGGGCAGUGGUUUGCCUGUCUUGUUGUCAAUCAGAAGCACUUCAGAAUCCAAGAUCAUGCUGUGGCCCCCAGGAAAAGCCAACAGAGGAUUGAGCAUCA
B6: chr2:125074910:125074911:+_ENSMUSG00000027203_ENSMUST00000082122|mus_mus|motif|central (ssRNA)
RNA: GGGAGUUCUACAGUCCGACGAUCCUUUACAGCCAAGCCAGAACGUGGAGCUACUCUUCCAUAGCACCCAGAAGGGACAGCGGUCUGAAUGUCUGUCUUCACGAUGGCUUUCUCCAUGGGUGAUAUUGUAUAAUCAUAGGCACUCAACAGAGGAUUGAGCAUCA
B7: chrX:71549762:71549763:+_ENSMUSG00000019087_ENSMUST00000019231|mus_mus|mus_mus_mus_hu_False|1_68 (ssRNA)
RNA: GGGAGUUCUACAGUCCGACGAUCAAACCCGUGUACUUCUUAUUGUUAGCACAACAUCACCAGAAAAAAAACAUAACAGCCAAGCAGGACAGACAGUUAAGUAGUACUUCCACACUCCCAAACUCAGGGAGCCCUAUAGUUCAUCAACAGAGGAUUGAGCAUCA
B8: chr5:179044645:179044646:-_ENSG00000169045_ENST00000393432|hu_hu|FALSE|FALSE (ssRNA)
RNA: GGGAGUUCUACAGUCCGACGAUCUACUCUGCCAUCAGGACCAAUUUCAAUGUGUACUCUCACAGGGUUGAGCGGUGAAAAAAAAUUAUAAAUGUCAUUCUCAGUAGCUCUGUAAGGUAAUCCCCGCAUGUGUACACAGUGUCCCAACAGAGGAUUGAGCAUCA
B9: chr2:126475859:126475860:-_ENSMUSG00000027361_ENSMUST00000110424|mus_hu|motif|central (ssRNA)
RNA: GGGAGUUCUACAGUCCGACGAUCAGUUUCUGAAGAAUUGGACAAUGGAGCAGAUGCUUCAGCUAAGGCAGCUAAUGUAGCGGAUACUGAUGUAGAAGAGUUUCCAAACUGAACAGCAGAUACACCCGUUUCAUCUGUUGCCUUCAACAGAGGAUUGAGCAUCA
B10: chr13:41369856:41369857:+_ENSMUSG00000091264_ENSMUST00000165561|mus_mus|FALSE|FALSE (ssRNA)
RNA: GGGAGUUCUACAGUCCGACGAUCUUGGCCUUGAAGCUCAUUUCCCGUAUGGAGCAGACAACACUAGAAGGUUCAUCAGUCUAUCACUUCUCUAGUUAACAGUCCAAAGUUCGGGUAGAACAAACAUGGACUCCUGGCAAGAGGCAACAGAGGAUUGAGCAUCA
B11: chr2:129997582:129997583:-_ENSMUSG00000027404_ENSMUST00000103199|mus_hu|FALSE|FALSE (ssRNA)
RNA: GGGAGUUCUACAGUCCGACGAUCAGGGGGCCCUGUAAGGGAAACCAGACAAUCCCAUGAGACUCCACGAACAACAGCAUAAGAAACAAACAGGUCUGUGGUAACGUGGCCCUGAGGAAUCGAGCCCACGCCUCUGCGGAGCUACAACAGAGGAUUGAGCAUCA
B12: 195000014_195000134_2550_3pUTR_ENSG00000114331_ENST00000326793|human|control|control (ssRNA)
RNA: GGGAGUUCUACAGUCCGACGAUCAGGGGGUCACCAGAUUUCAUAUUUUCCCAUUUUUAAAAAAAUUCAGAAUUUCUGUGAAUCUUGCUGGAAACGAUUUAGUUUCUCUGGAUUAUUGGAUGCCAUUUGGGAAAAAUCACGAAACAACAGAGGAUUGAGCAUCA
B13: 116383528_116384607_2571_3pUTR_ENSMUSG00000029516_ENSMUST00000051704|mouse|control|control (ssRNA)
RNA: GGGAGUUCUACAGUCCGACGAUCAGCUGCUGCUCAGCAUUGAUCUUCUCCAGUUUGGAAUAUUCUCCCACUUCAGGCUUCCCUUGGUCCUUAGCCUUCAUCAGUUUGUGCUGACAUUCGUUUGCCUUCCGCUUGAAUUCCUCGCAACAGAGGAUUGAGCAUCA
B14: 15271562_15271682_6892_CDS_ENSG00000074181_ENST00000263388|human|control|control (ssRNA)
RNA: GGGAGUUCUACAGUCCGACGAUCAAGUGGCUGGGCAGGCAGUGCCCCAGUGGUGGUGGCCAUGGCCCCAGUGGCAGUGGCUGGGCUAGGCGUGGAUUCGGACCAGUCUGAGAGGGAGGGAGGUGAGGGGCUGGCCCAGUGCUCCAACAGAGGAUUGAGCAUCA
B15: chr11:77336104:77336105:-_ENSG00000074201_ENST00000525064|hu_mus|hu_hu_hu_mus_False|18_78 (ssRNA)
RNA: GGGAGUUCUACAGUCCGACGAUCCUCACACAUUGCUGUGAACAUCGCCUCCAAUGCUGAUUUAUCACUGGGCACAAAUCGAAAUUCAGAAAUGGGUUCAACAUCAUCAUUGUCUUCUUCCUCUUCUUCAGAGAGAGGUUCUUUCAACAGAGGAUUGAGCAUCA
B16: chr9:14120538:14120539:-_ENSG00000147862_ENST00000380959|hu_mus|FALSE|FALSE (ssRNA)
RNA: GGGAGUUCUACAGUCCGACGAUCCUUCAGAGUAUCCUGAGGAUUCAGGUGAGGAGGAUAUCUGAUUGUUGGAUGAGAGAAGUAGCUGGAAGGUGCCGGAGGAAGGAUAGCUUGCGUCGGAAAUGGCAACGGUGAGGGCGGAGGCAACAGAGGAUUGAGCAUCA
B17: chr2:78760142:78760143:+_ENSMUSG00000027011_ENSMUST00000028398|mus_hu|motif|central (ssRNA)
RNA: GGGAGUUCUACAGUCCGACGAUCGGUCCACUGUCUGGCUAUCCUGUCGUGUUCUGCUCUGUUGGUCAAAUACUGAGUGGCGGUGCUUCCAACCAGAGGAUCCGCAGGGUUGCAGUCUGUCAAAAGGGAACAAAUAGACAGCAACAACAGAGGAUUGAGCAUCA
B18: chr17:7417611:7417612:+_ENSG00000181222_ENST00000322644|hu_mus|FALSE|FALSE (ssRNA)
RNA: GGGAGUUCUACAGUCCGACGAUCGACAAAAAAGCCUAUCAAAAAUGGGGUCCAGAACUUCCAGAGGGUUUUGUCACAAGGAGUUAUGUACAAGGGACCCAGGGUAGGGUCACAGCCUGUGAGGUGAGGGAAGUGACACACAGGCAACAGAGGAUUGAGCAUCA
B19: chr12:46623017:46623018:-_ENSG00000111371_ENST00000398637|hu_hu|FALSE|FALSE (ssRNA)
RNA: GGGAGUUCUACAGUCCGACGAUCGAGUCCCAAAAUCCCACUGCCCAUAAUGGCGUUGCUUAGGUUAAAAACAGACAUGCCUAAGGAGGUUGUACCUGGAAUAUACUCAUCACACUUCUUUUUUUCCAAAUGGCUGUUUGUGAGCAACAGAGGAUUGAGCAUCA
B20: chr16:75203323:75203324:+_ENSG00000184517_ENST00000393430|hu_hu|FALSE|FALSE (ssRNA)
RNA: GGGAGUUCUACAGUCCGACGAUCUGCUUUUCCAAAUUCAUUACACUCAUCAGUCUGCUUUCCUGCAUAGCUUCUAUUACUAUUAAGCAAGUCUGAAUUAUAUUUCAAAGUUUUUUCAUAUAAGUCAUAUUUAUAAGGUACUUGCAACAGAGGAUUGAGCAUCA
B21: chr10:33190432:33190433:-_ENSG00000150093_ENST00000302278|hu_mus|hu_hu_hu_mus_True|8_18 (ssRNA)
RNA: GGGAGUUCUACAGUCCGACGAUCUACAUUUUCCAAACCUGCAUGUGAAUAAAACCCUGGCCACAGAGCCCCAAAACUACCCUACUGUGACUAAGAUGCUGCUGCUGUGAGCUUGGUUGUUGUGGGAUUUGCACGGGAGGAUUCCAACAGAGGAUUGAGCAUCA
B22: 48270514_48270634_5294_3pUTR_ENSMUSG00000038143_ENSMUST00000079195|mouse|control|control (ssRNA)
RNA: GGGAGUUCUACAGUCCGACGAUCAUUAAGAAUAUACCACACCAGCAGAAUGAGGACAUUCUACUGUCCAUUAUAAGGGCCCAUGUAUAUUUCUAAUCAAAAAUUACUUUAAAUGUUUGUCUCUAUAGAUAUCUUCCCAGGAAUCAACAGAGGAUUGAGCAUCA

target: T1, UNK ZnF1-3; experiment: nsRBNS (natural sequence RNA bind-n-seq); RBNS binding buffer (assumed for nsRBNS): 25 mM Tris pH 7.5, 150 mM KCl, 3 mM MgCl2, 0.01% Triton X-100, 500 ug/ml BSA, 20 U/ml SUPERase-In, 4 C; UNK is unkempt and MSI1 is Musashi-1; names of the RNAs are library labels; protein concentration not given here; high values mean tight binding

Row | Binder | binding signal [enrichment R]
1 | B1 | 1.59
2 | B2 | 0.975
3 | B3 | 0.976
4 | B4 | 1.28
5 | B5 | 0.871
6 | B6 | 0.874
7 | B7 | 1.86
8 | B8 | 2.53
9 | B9 | 0.512
10 | B10 | 1.1
11 | B11 | 1.46
12 | B12 | 0.981
13 | B13 | 0.346
14 | B14 | 1.75
15 | B15 | 0.805
16 | B16 | 1.77
17 | B17 | 1.44
18 | B18 | 2.58
19 | B19 | 1.15
20 | B20 | 1.71
21 | B21 | 1.23
22 | B22 | 1.38
